Source: patent US7592316B2, “Peptides as NS3-serine protease inhibitors of hepatitis C virus” (Schering Corporation, priority 2000, dated 2009)

What follows are compounds tested against HCV NS3/NS4A protease (strain 1a) (Hepatitis C virus genotype 1a, UniProt P27958) (assay: biochemical). Conditions: HCV protease continuous assay results, Table 1; read-out: Ki* Range.
`CCCCC(NC(=O)[C@@H]1CC(F)(F)CN1C(=O)[C@@H](NC(=O)OC(C)(C)C)C(C)(C)C)C(=O)C(=O)NCC(=O)N[C@H](C(=O)N(C)C)c1ccccc1` (stereo partly shown) [Example 236] (Boc-[Tle][Pro(4,4-F2)][X4]G[Phg]-NMe2) gave a Ki of 101 to 1000 nM.
Work on `CC[C@H](C)C(NC(=O)[C@@H]1C[C@@H](OC(C)(C)C)CN1C(=O)C(NC(=O)OCC(C)C)C(C)(C)C)C(=O)C(=O)NCC(=O)O` (stereo partly shown) [Example 237] yielded a Ki greater than 1000 nM.
`CSCC(NC(=O)[C@@H]1CC2(CN1C(=O)[C@@H](NC(=O)OC(C)(C)C)C(C)(C)C)SCCCS2)C(=O)C(=O)NCC(=O)NC(C(=O)N(C)C)c1ccccc1` (stereo partly shown) [Example 238] (Boc-[Tle][Pro(4,4-S(CH2)3S)][X46]G[ξPhg]-NMe2) gave a Ki of 1 to 100 nM.
`CCCC(NC(=O)[C@@H]1CC2(CN1C(=O)C(NC(=O)OCC(C)C)C1CCC(F)(F)CC1)SCCCS2)C(=O)C(=O)NCC(=O)NC(C(=O)N(C)C)c1ccccc1` (stereo partly shown) [Example 240] showed a Ki of 1 to 100 nM.
With `CCCC(NC(=O)[C@@H]1C[C@@H](OCCOc2ccccc2)CN1C(=O)OCc1ccccc1)C(=O)C(=O)NCC(=O)NC(C(=O)N(C)C)c1ccccc1` (stereo partly shown) [Example 241] the Ki was greater than 1000 nM.
In the case of `CCCC(NC(=O)[C@@H]1CC2(CN1C(=O)C(NC(=O)OC(C)(C)C)C(C)(C)C)SCCCS2)C(=O)C(=O)NCC(=O)NC(CO)CC1CCCCC1` (stereo partly shown) [Example 242], the Ki is reported as 101 to 1000 nM.
In the case of `CCCC(NC(=O)[C@@H]1CC2(CN1C(=O)C(NC(=O)OC(C)(C)C)C(C)(C)C)SCCCS2)C(=O)C(=O)NCC(=O)NC(CO)C(C)C` (stereo partly shown) [Example 243], the Ki is reported as greater than 1000 nM.
Work on `CCCC(NC(=O)[C@@H]1CC2(CN1C(=O)C(NC(=O)OC(C)(C)C)C(C)(C)C)SCCCS2)C(=O)C(=O)NCC(=O)NC(CO)CCSC` (stereo partly shown) [Example 244] yielded a Ki of 101 to 1000 nM.
`CCCC(NC(=O)[C@@H]1CC2(CN1C(=O)C(NC(=O)OC(C)(C)C)C(C)(C)C)SCCCS2)C(=O)C(=O)NCC(=O)NC(CO)C(C)(C)C` (stereo partly shown) [Example 245] showed a Ki greater than 1000 nM.
In the case of `CCCC(NC(=O)[C@@H]1CC2(CN1C(=O)C(NC(=O)OC(C)(C)C)C(C)(C)C)SCCCS2)C(=O)C(=O)NCC(=O)NC(CO)CC(C)C` (stereo partly shown) [Example 246] (Boc-[ξTle][Pro(4,4-S(CH2)3S)][X2]G[ξLeu(ol)]), the Ki is reported as 101 to 1000 nM.
In the case of `CCCC(NC(=O)[C@@H]1CC2(CN1C(=O)C(NC(=O)OC(C)(C)C)C(C)(C)C)SCCCS2)C(=O)C(=O)NCC(=O)NC(CO)c1cccs1` (stereo partly shown) [Example 247], the Ki is reported as 1 to 100 nM.
For `CCCC(NC(=O)[C@@H]1CC2(CN1C(=O)C(NC(=O)Cc1ccccc1)C1CCCCC1)SCCCS2)C(=O)C(=O)NCC(=O)NC(C(=O)N(C)C)c1ccccc1` (stereo partly shown) [Example 248] (PhAc-[ξChg][Pro(4,4-S(CH2)3S)][X2]G[ξPhg]-NMe2), the Ki was 1 to 100 nM.
Compound `COC(=O)CNC(=O)C(=O)C(CCC(C)C)NC(=O)[C@@H]1C[C@@H](OC(C)(C)C)CN1C(=O)C(NC(=O)OCC(C)C)C(C)(C)C` (stereo partly shown) [Example 249] has a Ki greater than 1000 nM.
With `CC(C)CCC(NC(=O)[C@@H]1C[C@@H](OC(C)(C)C)CN1C(=O)[C@@H](NC(=O)OCC(C)C)C(C)(C)C)C(=O)C(=O)NCC(=O)O` (stereo partly shown) [Example 250] the Ki was greater than 1000 nM.
In the case of `CCCC(NC(=O)[C@@H]1CC2(CC2)CN1C(=O)[C@@H](NC(=O)OCC(C)C)C(C)(C)C)C(=O)C(=O)NCC(=O)N[C@H](C(=O)N(C)C)c1ccccc1` (stereo partly shown) [Example 251] (Isobutyloxycarbonyl-[Tle][Pro(4-spirocPr)][X2]G[Phg]-NMe2), the Ki is reported as 101 to 1000 nM.
`CCCC(NC(=O)[C@@H]1C[C@@H](OC(C)(C)C)CN1C(=O)[C@@H](NC(=O)OCC(C)C)C(C)(C)C)C(=O)C(=O)NCC(=O)OCc1ccccc1` (stereo partly shown) [Example 252] was tested, and the Ki was greater than 1000 nM.
`CCCC(NC(=O)[C@@H]1C[C@@H](OC(C)(C)C)CN1C(=O)[C@@H](NC(=O)OCC(C)C)C(C)(C)C)C(=O)C(=O)NCC(=O)O` (stereo partly shown) [Example 253] gave a Ki greater than 1000 nM.
`CCCC(NC(=O)[C@@H]1CC2(CN1C(=O)C(NC(=O)OC(C)(C)C)C(C)(C)C)SCCCS2)C(=O)C(=O)NCC(=O)NC(CO)c1ccccc1` (stereo partly shown) [Example 254] was tested, and the Ki was 101 to 1000 nM.
For `CC(C)CCC(NC(=O)[C@@H]1C[C@@H](OC(C)(C)C)CN1C(=O)[C@@H](NC(=O)OCC(C)C)C(C)(C)C)C(=O)C(=O)NCC(=O)N[C@H](C(=O)N(C)C)c1ccccc1` (stereo partly shown) [Example 255] (Isobutyloxycarbonyl-[Tle][Hyp](tBu)[X99]G[Phg]-NMe2), the Ki was 101 to 1000 nM.
Compound `CCCC(NC(=O)[C@@H]1CC(OCCOc2ccccc2)CN1C(=O)C(NC(C)=O)C1CCCCC1)C(=O)C(=O)NCC(=O)NC(C(=O)N(C)C)c1ccccc1` (stereo partly shown) [Example 256] has a Ki of 1 to 100 nM.
`CCCCCC(NC(=O)[C@@H]1C[C@@H](OC(C)(C)C)CN1C(=O)C(NC(=O)OCC(C)C)C(C)(C)C)C(=O)C(=O)NCC(=O)OC` (stereo partly shown) [Example 257] was tested, and the Ki was greater than 1000 nM.
`CCCC(NC(=O)[C@@H]1CC(OCCOc2ccccc2)CN1C(=O)C(NC(=O)OCC(C)C)C1CCCCC1)C(=O)C(=O)NCC(=O)NC(C(=O)N(C)C)c1ccccc1` (stereo partly shown) [Example 258] was tested, and the Ki was 1 to 100 nM.

*1 amine or outer side, *2 acyl side, *3 side chain or, on linkers, in order; H or OH if unused. Where a SMILES comes first, the peptide text is derived from it. [ ]: non-standard residue; d: D form. The star is where a group is joined. ξ: configuration not given here. Pro(4,4-S(CH2)3S) = O=C(O)[C@@H]1CC2(CN1)SCCCS2; Pro(4-spirocPr) = O=C(O)[C@@H]1CC2(CC2)CN1; Pro(4,4-F2) = O=C(O)[C@@H]1CC(F)(F)CN1; X99 = CC(C)CCC(N[*:1])C(=O)C(=O)[*:2]; Isobutyloxycarbonyl = CC(C)COC(=O)*; X4 = CCCCC(N[*:1])C(=O)C(=O)[*:2]; X46 = CSCC(N[*:1])C(=O)C(=O)[*:2]; Hyp = O=C(O)[C@@H]1C[C@@H](O)CN1; X2 = CCCC(N[*:1])C(=O)C(=O)[*:2]; Phg = N[C@H](C(=O)O)c1ccccc1; Tle = CC(C)(C)[C@H](N)C(=O)O; ξChg = NC(C(=O)O)C1CCCCC1; ξPhg = NC(C(=O)O)c1ccccc1; ξTle = CC(C)(C)C(N)C(=O)O; ξLeu(ol) = CC(C)CC(N)CO; PhAc = O=C(Cc1ccccc1)*; Boc = CC(C)(C)OC(=O)*; tBu = CC(C)(C)*
